Data as given in PMC12136788.
This is one part of the list.

B1: chr2:112102183:112102184:+_ENSMUSG00000027133_ENSMUST00000028553|mus_mus|motif|central (ssRNA)
RNA: GGGAGUUCUACAGUCCGACGAUCUGCUCGUUGAGGUAAUAUUGGAGAAACAUAACUGCCCUCAGCAAAAAGACACACGUACGGCCGCCAGCCGCGUUUACUCCGAGUGCGCCGCUUCAAUCGCGUGCGCCAACAACCUUCCAGCAACAGAGGAUUGAGCAUCA
B2: chr1:39494564:39494565:+_ENSG00000168653_ENST00000372967|hu_hu|hu_hu_hu_mus_True|38_48 (ssRNA)
RNA: GGGAGUUCUACAGUCCGACGAUCAUGCAUUCGCCUCAUCGUUUUGUACCGAAGCAAGCACUCUUCGAAGUCAUCGAACUCUAUCUUGCACUCUUUCUCUGCCCGAGUCCCACCGAUCCCGUGUGCACACUCUAUCCACUCUUUCAACAGAGGAUUGAGCAUCA
B3: chr7:97322993:97322994:+_ENSMUSG00000039361_ENSMUST00000049537|mus_mus|motif|central (ssRNA)
RNA: GGGAGUUCUACAGUCCGACGAUCUGUUGUAGCCCUGCUUGCAGCUGUGGAAUCUUUGAUUUUCUUUCCUUCCAAGGAAGCGGAAUGUUGUUCUAAAGCAUCAAGAAGACUGCUGGGGGCCUGUGAAAGAUCUGGAAUAUCUCCCAACAGAGGAUUGAGCAUCA
B4: chr17:64801638:64801639:+_ENSG00000154229_ENST00000413366|hu_mus|hu_hu_hu_mus_False|88_88 (ssRNA)
RNA: GGGAGUUCUACAGUCCGACGAUCUAUAUAUAUAUAUACAUAUGUACACAUAUGUAGUAAAACCCUAGUUAAACGUGUAAAGUAGCCAUUCAUUUUUAAAAUUACAUCUACAUUAAAAAAUUAAUAUAUCUGAUAGAGUGCCAGCAACAGAGGAUUGAGCAUCA
B5: chrX:129263551:129263552:-_ENSG00000156709_ENST00000287295|hu_mus|FALSE|FALSE (ssRNA)
RNA: GGGAGUUCUACAGUCCGACGAUCGGAUGGAAAAGUGCUUGUGUAUUCCACGAUUGGGAUUCAAUCUUCAUGAAUGUUGAAGAGUUUAGCUACUUCAUUGAGAUCUUCAUGUUGCUCACCGUCCUUAAUGAUCUUCCUUGCAAUCAACAGAGGAUUGAGCAUCA
B6: chr8:117878989:117878990:-_ENSG00000164754_ENST00000297338|hu_hu|hu_hu_hu_mus_True|8_108 (ssRNA)
RNA: GGGAGUUCUACAGUCCGACGAUCCCAGAGGCCCUCUUUUACUGAGGACAAAAUGUGCGUAGAACAUUUUUCUUAUUUGCUAUGAAAUAAGAAGAAACCUGGAUCUCGGCGGGGAGCCGGGAGGGGUUGGGUGGCCCGGGAGGGCAACAGAGGAUUGAGCAUCA
B7: chr11:77336104:77336105:-_ENSG00000074201_ENST00000525064|hu_mus|hu_hu_hu_mus_False|58_68 (ssRNA)
RNA: GGGAGUUCUACAGUCCGACGAUCCUCACACAUUGCUGUGAACAUCGCCUCCAAUGCUGACUUAUCACUAGGCACAAAUCUAAAUUCAGAAAUGGGUUCAACAUCAUCAUUGUCUUCCUCAUCUUCAUCAGAGAGAGGUUCUUUCAACAGAGGAUUGAGCAUCA
B8: chr4:17845017:17845018:+_ENSG00000109805_ENST00000514176|hu_mus|hu_hu_hu_mus_False|58_88 (ssRNA)
RNA: GGGAGUUCUACAGUCCGACGAUCGCUCUCUUAACUUGUAUCUUCAUGAGAAAUUGGUGCAAGGUUAAGUUUACUUUUUCUAGUGCUAGCUGUUUUGGCUCGUCUGGGUAAUCUCAUCUUCAUUUCUGAUGGUGGUUCAUGAUCCAACAGAGGAUUGAGCAUCA
B9: chr5:128440902:128440903:+_ENSG00000066583_ENST00000173527|hu_mus|hu_hu_hu_mus_True|8_108 (ssRNA)
RNA: GGGAGUUCUACAGUCCGACGAUCUUGAACCGUGCUCCCAAGUCCUUUGGGGUAUUGUUCCGUUAUGAUAACUGGAAUCCCUAAGAUCCGAGCUCCUUGCAACAGUCUCUGUCCCACACUAAUGAUGUCCCCAAAAUAUUUGAUCAACAGAGGAUUGAGCAUCA
B10: 124116895_124118113_260_CDS_ENSG00000111361_ENST00000424014|human|control|control (ssRNA)
RNA: GGGAGUUCUACAGUCCGACGAUCAUCUCUCUUCAAGAACUCCAGCAACGUCCGGAUGGCAGCCACUGCUGAGGCCAUGUCAGGAUCUUCUUUCAUCUGAGACUUAAAGUAUUCAAUUAACUCCUUGUCGUCCAUGGCGUCCUCCAACAGAGGAUUGAGCAUCA
B11: chr10:33190432:33190433:-_ENSG00000150093_ENST00000302278|hu_mus|hu_hu_hu_mus_True|18_48 (ssRNA)
RNA: GGGAGUUCUACAGUCCGACGAUCUACAUUUUCCAAACCUGCAUGUGAAUAAAACCCUGGCCACAGAGCCCCAAAACUACCCUACUGUGACUAUGGAGCUGCUGCUGUGAGCUUGGUUGUUGUGGGACCGCCUGAGUAGGAUUCCAACAGAGGAUUGAGCAUCA
B12: chr7:107985766:107985767:+_ENSMUSG00000029461_ENSMUST00000049053|mus_mus|motif|central (ssRNA)
RNA: GGGAGUUCUACAGUCCGACGAUCAUCCCUAGCAAAAUUUUUGUAGGUAAAAUGCCAGUAGUAGGACGGCUGCAUUUAAUGCGGAUUUACAGUGAGGUUCAGAGAAGUCCUUUCUGCUUCUCUGGGCCUCAGUUUCCUCAUCUGCAACAGAGGAUUGAGCAUCA
B13: chr6:143133109:143133110:+_ENSMUSG00000030275_ENSMUST00000032413|mus_hu|motif|central (ssRNA)
RNA: GGGAGUUCUACAGUCCGACGAUCUUUGGGGAUCCAGCCAUUGUGUGCAUGAAUAGCAUGGAUUUUAGCAAGCUGACGAGCGGUUAGCCUGAAAAUGGCUGGGUUGCAGACAUGCUUUGGAUCCAGUGCUUCUCCUUGUAUAAACAACAGAGGAUUGAGCAUCA
B14: chr9:108469239:108469240:-_ENSMUSG00000070283_ENSMUST00000074208|mus_mus|motif|central (ssRNA)
RNA: GGGAGUUCUACAGUCCGACGAUCCAGCCGGUCGACGUGCCGACAGAGCGGCGCAGGUCGCGUUCGGAAAAGGCAGCGAAAUCCGGGAGCAGUAGCCAUGGCUGCAACGGCGCUUAACGACCCGGUCGUAGGGACAGAGUUGUCCAACAGAGGAUUGAGCAUCA

target: T1, UNK ZnF1-3 (human, UniProt Q9C0B0 31-174); test: nsRBNS (natural sequence RNA bind-n-seq); RBNS binding buffer (assumed for nsRBNS): 25 mM Tris pH 7.5, 150 mM KCl, 3 mM MgCl2, 0.01% Triton X-100, 500 ug/ml BSA, 20 U/ml SUPERase-In, 4 C; UNK is unkempt and MSI1 is Musashi-1; names of the RNAs are library labels; protein concentration not given here; high values mean tight binding
T1 sequence: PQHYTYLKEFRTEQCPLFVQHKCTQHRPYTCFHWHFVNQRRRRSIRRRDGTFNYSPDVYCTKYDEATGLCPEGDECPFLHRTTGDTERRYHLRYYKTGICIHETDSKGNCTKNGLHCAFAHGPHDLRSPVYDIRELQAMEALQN

Binder | binding signal
B1 | 0.953 enrichment R
B2 | 0.683 enrichment R
B3 | 1.12 enrichment R
B4 | 1.94 enrichment R
B5 | 0.568 enrichment R
B6 | 1.26 enrichment R
B7 | 1.02 enrichment R
B8 | 0.346 enrichment R
B9 | 0.757 enrichment R
B10 | 0.88 enrichment R
B11 | 1.02 enrichment R
B12 | 0.463 enrichment R
B13 | 0.564 enrichment R
B14 | 0.666 enrichment R
